# Source: the BET-seq Pho4 binding data (Le et al. 2018)
# The list shows a part of the results. Values were computed here from the reads of four pooled replicates and scatter widely.
# Biological target: T1, Pho4 (S. cerevisiae) (UniProt P07270)
# T1 sequence: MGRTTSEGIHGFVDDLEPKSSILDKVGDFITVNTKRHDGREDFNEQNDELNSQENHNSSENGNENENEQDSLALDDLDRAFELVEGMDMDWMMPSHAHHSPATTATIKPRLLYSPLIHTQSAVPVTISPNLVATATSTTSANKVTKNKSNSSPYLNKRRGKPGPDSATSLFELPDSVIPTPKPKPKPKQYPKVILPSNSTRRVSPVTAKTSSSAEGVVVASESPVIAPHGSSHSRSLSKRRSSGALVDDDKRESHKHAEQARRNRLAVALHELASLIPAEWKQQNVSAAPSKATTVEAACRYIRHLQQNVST
# Assay: relative binding free energy (BET-seq); higher = weaker binding
# Conditions: reference: library average
row,Sequence,relative binding free energy
1,GGATTCACGTGCTAGT,0.31 kcal/mol
2,TATAGCACGTGCGGGA,-0.18 kcal/mol
3,TTTCACACGTGTAGAG,0.14 kcal/mol
4,TTGGTCACGTGTAATG,0.13 kcal/mol
5,TTCTTCACGTGGTTGA,0.19 kcal/mol
6,GGCGACACGTGGGCGT,-0.19 kcal/mol
7,CATAACACGTGAGGGT,0.2 kcal/mol
8,ATTAACACGTGCGGGG,-0.05 kcal/mol
9,TTATTCACGTGCTGGT,0.19 kcal/mol
10,AAATTCACGTGGAGAT,0.27 kcal/mol
11,TCGGGCACGTGGGATC,-0.1 kcal/mol
12,TAGATCACGTGTAGTC,0.25 kcal/mol
13,ATTGACACGTGTTGGG,0.09 kcal/mol
14,ATGAGCACGTGGAAGT,-0.03 kcal/mol
15,ATTATCACGTGCGCGG,0.13 kcal/mol
16,TAGGTCACGTGTTGCT,0.13 kcal/mol
17,ATGTCCACGTGCGGGT,-0.06 kcal/mol
18,AAGATCACGTGGTTGG,0 kcal/mol
19,AGTTGCACGTGGTGGA,-0.04 kcal/mol
20,TGGACCACGTGGTATG,-0.08 kcal/mol
21,GGCAACACGTGGAGTG,-0.04 kcal/mol
22,TAGGTCACGTGTGGAA,0.26 kcal/mol
23,AGTTCCACGTGTGGTA,-0.01 kcal/mol

row,Sequence,relative binding free energy
1,TTAAGCACGTGTAGTT,0.04 kcal/mol
2,TCGTTCACGTGATGTT,0.23 kcal/mol
3,GTATGCACGTGGCTGG,-0.19 kcal/mol
4,GTAAGCACGTGAAGGT,0.1 kcal/mol
5,AGTTGCACGTGCGGAA,0.03 kcal/mol
6,GTGATCACGTGTTGCT,0.21 kcal/mol
7,CTGTTCACGTGATGGA,0.31 kcal/mol
8,ATTTACACGTGTTTTC,0.28 kcal/mol
9,AGGGGCACGTGAGGAG,0.16 kcal/mol
10,GGGTTCACGTGGTCAA,0.2 kcal/mol
11,TTGTTCACGTGTGCAG,0.15 kcal/mol
12,TAATACACGTGGGGGG,-0.02 kcal/mol
13,GCGGTCACGTGCGTGG,0.02 kcal/mol
14,TTTTACACGTGAATGA,0.38 kcal/mol
15,AAGTTCACGTGTGTGC,0.12 kcal/mol
16,TGTGTCACGTGCTCTG,-0.13 kcal/mol
17,TTCGTCACGTGTGTGC,-0.06 kcal/mol
18,TTGCACACGTGGTCGG,-0.04 kcal/mol
19,TTTATCACGTGGCTGT,0.13 kcal/mol
20,TTAAGCACGTGGTAGT,-0.22 kcal/mol
21,TTCAGCACGTGTTAAG,-0.01 kcal/mol
22,GGTGTCACGTGCGGAG,-0.05 kcal/mol
23,GGTGGCACGTGCATAT,-0.14 kcal/mol

row,Sequence,relative binding free energy
1,TTCTGCACGTGATAAT,0.14 kcal/mol
2,TGCGGCACGTGTAGCG,0 kcal/mol
3,GATGACACGTGGTATG,0.06 kcal/mol
4,GGGTTCACGTGGGGAT,0.29 kcal/mol
5,ATGGTCACGTGAAGCT,0.2 kcal/mol
6,TCGGTCACGTGTTTGT,0.15 kcal/mol
7,TGCGCCACGTGTTTTG,-0.05 kcal/mol
8,CGGGTCACGTGTGTAC,0.04 kcal/mol
9,CCAAGCACGTGGGGGG,-0.25 kcal/mol
10,GTAGACACGTGGTGTT,-0.13 kcal/mol
11,AATGTCACGTGGGAAG,0.08 kcal/mol
12,AAGTGCACGTGATTAG,-0.02 kcal/mol
13,CGGGGCACGTGTGGAT,-0.15 kcal/mol
14,GGTCGCACGTGCGGGC,-0.06 kcal/mol
15,GCTATCACGTGTTTGG,0.02 kcal/mol
16,CTTGGCACGTGAATGG,0.19 kcal/mol
17,TAGTGCACGTGGGGGT,-0.15 kcal/mol
18,TAGGGCACGTGATTCG,-0.08 kcal/mol
19,GGTTGCACGTGGTAAA,0.15 kcal/mol
20,CTTAACACGTGGGTGG,-0.2 kcal/mol
21,ATGATCACGTGTTAAT,0.2 kcal/mol
22,CTGGGCACGTGAAGTG,0.03 kcal/mol
23,TGACGCACGTGTCGGG,-0.09 kcal/mol

row,Sequence,relative binding free energy
1,GTTCGCACGTGTGTGA,0 kcal/mol
2,TATGACACGTGTTGGG,0.15 kcal/mol
3,TGACGCACGTGTGGGT,0.02 kcal/mol
4,CGGCACACGTGTGGTT,0.2 kcal/mol
5,CGATACACGTGTAGGT,0.19 kcal/mol
6,GGTTACACGTGTGGAG,0.27 kcal/mol
7,GTTGTCACGTGGCGGT,0.14 kcal/mol
8,GCTGTCACGTGTTGTT,0.19 kcal/mol
9,GCTGTCACGTGAGGCG,0.25 kcal/mol
10,TTAAGCACGTGTGTGT,-0.21 kcal/mol
11,ATGCGCACGTGCGGTT,-0.26 kcal/mol
12,TGGCGCACGTGATTAT,0.03 kcal/mol
13,GGTAACACGTGGTGCG,0.01 kcal/mol
14,GTTGGCACGTGACTTT,0.13 kcal/mol
15,AATGTCACGTGTGACG,0.08 kcal/mol
16,ATTCACACGTGAATGG,0.3 kcal/mol
17,TGAGACACGTGTGGTG,0.12 kcal/mol
18,GATATCACGTGGGTTT,0.19 kcal/mol
19,ATCTGCACGTGGGGAT,-0.14 kcal/mol
20,TATTTCACGTGCTATA,0.16 kcal/mol
21,ATGGTCACGTGTTGGT,0.17 kcal/mol
22,GGTAGCACGTGACGAG,0.28 kcal/mol
23,GTGGTCACGTGTACAG,0.22 kcal/mol

row,Sequence,relative binding free energy
1,TTGACCACGTGGGTTT,-0.2 kcal/mol
2,GTTGGCACGTGGAGCT,-0.02 kcal/mol
3,TGTAGCACGTGATGCT,-0.02 kcal/mol
4,GCGAGCACGTGTCTGG,0.09 kcal/mol
5,ATGTTCACGTGAATGC,0.45 kcal/mol
6,TTTAGCACGTGATCGG,-0.09 kcal/mol
7,GAAAGCACGTGTGTAG,0.17 kcal/mol
8,ATAATCACGTGGATGG,0.01 kcal/mol
9,TATGTCACGTGGGGTG,-0.08 kcal/mol
10,CGGTTCACGTGTGTAG,0.32 kcal/mol
11,GGATGCACGTGGACGG,-0.01 kcal/mol
12,CTGTGCACGTGCTTTA,-0.06 kcal/mol
13,TTGAACACGTGTGGCG,0.11 kcal/mol
14,GTTAACACGTGGAAGT,0.05 kcal/mol
15,GGTGTCACGTGCTGTT,0.11 kcal/mol
16,CGATTCACGTGAGCGG,0.42 kcal/mol
17,TGAAGCACGTGTGTAA,-0.09 kcal/mol
18,AGAGCCACGTGTGGGA,-0.07 kcal/mol
19,CTTGTCACGTGGAATT,0.23 kcal/mol
20,GGGTACACGTGGGAAC,0.12 kcal/mol
21,GTGGTCACGTGTGTAG,0.2 kcal/mol
22,CGGCGCACGTGGGTTG,-0.43 kcal/mol
23,TTAGTCACGTGAGGAT,0.18 kcal/mol
